In PubChem BioAssay AID493208 (National Center for Advancing Translational Sciences (NCATS), 2011):
Hit rate of the full screen: of about 44,000 compounds, about 340 (0.77%) were called active. Inconclusive results (about 5%) are left out. Calls come from the whole dose curve; as a rule, active = well fitted inhibition curve with a large enough effect; inconclusive = small, poorly fitted or top-dose-only effect; inactive = flat fitted curve, though single readings scatter. The list shows a part of the results.

Experiment: Acumen qHTS Assay for Inhibitors of the mTORC1 Signaling Pathway in MEF (Tsc2-/-, p53-/-) Cells: Sytravon;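 note: plate controls were DMSO for no effect and rapamycin for full effect; nearly all actives have a fitted effect of over 50% in size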
Conditions: phospho-rpS6 immunofluorescence/PI, 24 h; series mostly up to 38.3 µM; activity change, negative = inhibition: at the top concentration
In short: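 Cell-based qHTS: Tsc2-/- p53-/- MEF, 24 h cpd, 37 °C; fix/perm, anti-phospho-S6 Alexa-488 + PI; Acumen 488 nm scan; pS6/PI ratio, % positive cells; rapamycin 7.5 nM = inhibition ref; PI count = viability.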

Activity change, negative = inhibition, inactive:
CN(C)c1ccc(CNC(=O)C2CCCN(S(=O)(=O)c3ccc4c(ccn4C)c3)C2)cc1 (stereo not given) -22.6%
COC(=O)C1=C(C)NC(=O)C1(NC(=O)c1ccc(Cl)cc1)C(F)(F)F (stereo not given) -0.0392%
CCN1CCC(N(Cc2cccc(OC)c2)C(=O)Nc2cccc(C)c2C)CC1 -3.17%
CC1=Nc2cc(C(=O)NCc3ccc(C)cc3)ccc2Sc2ccc(Cl)cc21 -3.67%
COc1ccc(C2N=C(N)Nc3nc4ccccc4n32)c(OC)c1OC (stereo not given) -7.09%
O=C(CSc1nc2c([nH]c3ccccc32)c(=O)n1-c1ccc(Cl)cc1)NC1CCCCC1 -0.523%
CCCCNC(=O)Nc1ccc2c(c1)N(C)C(=O)c1ccccc1S2 -0.0839%
CCN(CC)C(=O)CN1C(=O)COc2ccc(S(=O)(=O)N3CCOCC3)cc21 -17.4%
CCc1ccc(NC(=O)N2CCN(Cc3nc4ccc(C)cc4o3)CC2)cc1 2.11%
COc1ccc(NC(=O)Cn2nnc(C(=O)NCc3ccco3)c2N)c(OC)c1 1.82%
COc1ccccc1NC(=O)c1c(C)cc(C)nc1SCC(=O)Nc1ccc(C)cc1 -1.28%
Cc1cc(Nc2cccc(Br)c2)n2c(nc3ccccc32)c1C#N -4.78%
Cc1ccc(N2CCN(C(=O)c3cn(C)c4ccc(S(=O)(=O)N5CCCC5)cc4c3=O)CC2C)cc1 (stereo not given) -6.05%
CC(=O)Nc1ccc(S(=O)(=O)NCC2CCC(C(=O)NCc3ccccc3)CC2)cc1 (stereo not given) -2.77%
CCOc1ccc(NC(=O)CN2C(=O)c3ccccc3Sc3ccc(C(=O)OC)cc32)cc1 1.41%
COc1cc(NC(=O)CSc2nc(-c3ccccc3)no2)cc(OC)c1 3.36%
Cc1cc(C)cc(-n2c(SCC(=O)NCc3ccc(F)cc3)nc3c([nH]c4ccccc43)c2=O)c1 -6.37%
Cc1ccc2c(c1)c(=O)c1ccccc1n2CCCC(=O)Nc1ccc(Cl)c(Cl)c1 18.7%
COc1cccc(NC(=O)CN2C(=O)CC(c3ccco3)Sc3ccccc32)c1 (stereo not given) -0.0092%
Cc1cccc(C)c1NC(=O)C(=O)NCC(c1cccnc1)N1CCc2ccccc21 (stereo not given) 3.09%
COC(=O)c1sc(-c2ccccc2)cc1NC(=O)c1cccc(Cl)c1 -6.92%
COc1cc(NC(=O)c2cc3c(=O)n(Cc4ccco4)ccc3nc2C)cc(OC)c1OC -19.2%
O=C(C1CCC(Cn2c(=O)c3sccc3n(Cc3ccccc3F)c2=O)CC1)N1CCOCC1 (stereo not given) -2.19%
CCOC(=O)c1c(NC(=O)c2ccc(S(=O)(=O)N(CC(C)C)CC(C)C)cc2)sc2c1CCN(CC)C2 8.06%
O=C(Nc1nc(-c2ccccc2)ns1)c1ccc(Cl)cc1 -9.53%
CCOC(=O)N1CCc2c(sc(NCc3cccs3)c2C(=O)Nc2cc(Cl)ccc2OC)C1 0.726%
CCN(CC)c1ccc(NC(=O)C2CCN(S(=O)(=O)c3ccc4c(c3)oc(=O)n4C)CC2)c(C)c1 -1.99%
Cc1cccc(NC(=O)C(NS(=O)(=O)c2cccc3nsnc23)c2ccccc2)c1C (stereo not given) -3.81%
COc1ccc(CN(C(=O)c2cc(=O)c3ccccc3o2)C2CCS(=O)(=O)C2)cc1OC (stereo not given) -9.96%
COc1ccccc1N1CCN(C(=O)c2ccc3c(c2)N(Cc2cc(C)ccc2C)C(=O)c2ccccc2S3(=O)=O)CC1 -8.58%
COc1ccc(N2CCN(S(=O)(=O)c3cc(Br)cc4c3N(C(=O)C3CC3)CC4)CC2)cc1 3.88%
Cc1ccc(NC(=O)Cn2c(=O)n(Cc3ccco3)c(=O)c3sc4ccccc4c32)c(C)c1 -5.15%
CC(C)(C)OC(=O)N1CCC(c2c(C(=O)N3CCN(c4ccccn4)CC3)cnn2-c2cccc(F)c2)CC1 2.12%
CCOC(=O)c1c(C)c(-c2ccccc2)n(CC(=O)NCc2ccccc2)c1C 2.84%
COc1cc2c(=O)c(S(=O)(=O)c3ccc(C(C)C)cc3)cn(Cc3ccccc3C)c2cc1OC -5.82%
Cc1ccc(C(=O)NCC(c2ccco2)S(=O)(=O)c2ccccc2)cc1C (stereo not given) 8.93%
CCOC(=O)c1ccc(NS(=O)(=O)c2ccc3c(c2)CCN3C(=O)CC)cc1 -1.66%
O=C(CSc1nccn1Cc1ccccc1)Nc1nc2ccccc2s1 0%
COc1ccc(OC)c(NC(=O)COCc2cc(-c3ccco3)on2)c1 -0.311%
O=C(Nc1cccc(C(F)(F)F)c1)c1cc2nc(-c3ccco3)cc(C(F)(F)Cl)n2n1 -1.84%
Cc1cc(C)c(Cn2c(=O)n(Cc3ccccc3)c(=O)c3c(C)c(C)sc32)c(C)c1 1.57%
COc1ccc(-n2nc(C(=O)N3CCCCC3)c3c4ccccc4n(C)c3c2=O)cc1Cl -3.45%
Cc1ccc(S(=O)(=O)c2nnn(CC(=O)Nc3ccccc3C)c2N)cc1 2.06%
CCOC(=O)c1cc(-c2ccccc2)n(CCC(=O)NCCc2ccc(C)cc2)c1C -12.9%
COc1ccc(OC)c(CNC(=O)c2cc3ccc4cccnc4c3[nH]2)c1 -0.814%
Cc1nn2c(=O)cc(COC(=O)c3ccc(NC(=O)COc4ccc(Cl)cc4)cc3)nc2s1 0%
CC1CCN(S(=O)(=O)c2ccc3nc(NCc4ccc(F)cc4)ccc3c2)CC1 -18.2%
CCn1nnc2cc(C(=O)Nc3ccc(C)cc3Br)ccc21 0%
O=C(Cn1nnc2sc(-c3ccccc3)cc2c1=O)Nc1cccc(C(F)(F)F)c1 4.76%
CC(C)(C)OC(=O)N1CCC(c2nnc(SCc3ccccc3F)o2)CC1 -15.7%
CCOc1ccc(CCNc2ncnc3onc(-c4ccc(Cl)cc4)c23)cc1 -8.42%
COc1ccc(C)cc1NC(=O)C(=O)NCCc1csc2nc(-c3ccccc3F)nn12 -14.7%
CCc1ccccc1NC(=O)CN(c1ccc(OC)cc1)S(=O)(=O)c1c(C)n[nH]c1C -18.5%
Cc1cccc(-c2nc3scc(CCNS(=O)(=O)c4ccc(F)cc4C)n3n2)c1 1.77%
Cc1oc(-c2ccccc2)nc1CNC(=O)NC1CCCCC1 13.9%
COc1ccc(Nc2sc(C(=O)c3ccccc3)c(N)c2C(=O)Nc2cc(C)ccc2C)c(OC)c1 -3.83%
Cc1ccn2c(c1)nc(=O)c1cc(S(=O)(=O)N3CCCCC3)c(Cl)cc12 0.144%
CCc1ccc(NC(=O)c2sc3nc(C)c(C(=O)Nc4ccc(C)cc4C)c(-c4ccco4)c3c2N)cc1 -1.95%
Cc1c(NC(=O)c2cc(-c3ccc(Br)cc3)on2)c(=O)n(-c2ccccc2)n1C -28.7%
Cc1ccc(S(=O)(=O)c2nnn3c2nc(N2CCC(C)CC2)c2cc(Cl)ccc23)cc1C 6.37%
